# From PubChem BioAssay AID2147 (National Center for Advancing Translational Sciences (NCATS), 2009)
# Where “and” joins values, the source holds several entries; their conditions need not be identical. Identical values can stand only once. Screen size: about 230,000 compounds; about 3,600 (1.6%) were called active. The shares of active, inactive and inconclusive entries below differ from those in the screen. Calls come from the whole dose curve; as a rule, active = well fitted inhibition curve with a large enough effect (not every such curve was filed as active); inconclusive = small, poorly fitted or top-dose-only effect, or another doubt; inactive = no such curve, though single readings can be large or run the other way. Where the call is inconclusive, the potency comes from a doubtful curve fit.
# Molecular target: Lysine-specific demethylase 4E (Homo sapiens) (UniProt B2RXH2)
# Chain of UniProt B2RXH2 (B2RXH2 whole entry, looked up, the tested form may be a part): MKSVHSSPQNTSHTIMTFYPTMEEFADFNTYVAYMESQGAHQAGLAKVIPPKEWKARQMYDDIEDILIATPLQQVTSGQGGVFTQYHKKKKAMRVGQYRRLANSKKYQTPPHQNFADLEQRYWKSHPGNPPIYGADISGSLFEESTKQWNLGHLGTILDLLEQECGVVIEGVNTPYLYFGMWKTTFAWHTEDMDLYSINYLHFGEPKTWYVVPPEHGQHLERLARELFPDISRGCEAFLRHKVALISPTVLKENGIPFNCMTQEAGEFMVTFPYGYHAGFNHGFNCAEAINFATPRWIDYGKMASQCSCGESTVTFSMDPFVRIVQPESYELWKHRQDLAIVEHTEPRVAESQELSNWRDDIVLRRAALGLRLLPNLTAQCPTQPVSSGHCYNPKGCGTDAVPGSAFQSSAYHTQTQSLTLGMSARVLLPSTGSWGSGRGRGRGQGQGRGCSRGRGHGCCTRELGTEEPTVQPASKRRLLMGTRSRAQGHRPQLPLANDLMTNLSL
# Test: qHTS Assay for Inhibitors of Human Jumonji Domain Containing 2E (JMJD2E)
# Details: JMJD2E catalytic domain, FDH-coupled NADH fluorescence (FDH is formaldehyde dehydrogenase); series mostly up to 57.1 µM; activity change, negative = inhibition: at the top concentration
# Note: nearly all actives have a fitted effect of over 50% in size.
# Potency is the fitted concentration of half-maximal effect; tags give direction and shape of the fitted curve.
# 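Throughout, for activity change, negative = inhibition: 0% = wells with enzyme and -100% = buffer wells without enzyme.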
SMILES,Potency,"activity change, negative = inhibition"
COC(=O)C1=CN(Cc2cccs2)C=C(C(=O)OC)C1c1cccc(O)c1,"inconclusive: 25.1 µM [inhibitor, partial curve]",
Cc1ccc(-c2ccc(/C=N/NC(N)=S)o2)cc1,"inconclusive: 35.5 µM [inhibitor, single point]",
Cc1cc(N2CCN(c3ccccc3)CC2)n2nnnc2n1,,inactive: 3.12%
O=C(COC(=O)c1cccnc1Nc1cccc(C(F)(F)F)c1)NC1CCS(=O)(=O)C1 (centres undefined),"inconclusive: 22.4 µM [inhibitor, single point]",
Cc1c(Cl)cccc1NC(=S)N(CCN(C)C)C(C)c1ccco1 (centres undefined),,inactive: -17.9%
Nc1cc(Cl)ccc1Oc1ccc(Cl)cc1,"inconclusive: 39.8 µM [inhibitor, single point]",
COc1ccc(Br)cc1S(=O)(=O)Nc1cccc(C)n1,"inconclusive: 28.2 µM [inhibitor, partial curve]",
CC(=O)N1CCN(c2ccc(NCc3ccc(C)cc3)cc2)CC1,"inconclusive: 35.5 µM [inhibitor, single point]",
CC1=C(C(=O)OC(C)C)C2(O)C(=O)c3ccccc3C2(O)N1 (centres undefined),"inconclusive: 0.501 µM [inhibitor, full curve, poor fit]",
CCCCCn1c(=O)[nH]c2cc(C(=O)NCCCN(CC)CC)ccc2c1=O,"inconclusive: 28.2 µM [inhibitor, partial curve]",
O=C(CSc1nc2ncc(Cl)cc2[nH]1)NCC(=O)Nc1ccc(F)c(F)c1F,,inactive: -11.6%
CCCCC1=CC2=CC(=O)C(C)(OC(=O)CC)C(=O)C2=CN1CCc1c[nH]c2ccccc12 (centres undefined),,inactive: 4.42% [at 11.4 µM]
Nc1cc2nc[nH]c2cc1N,"inconclusive: 31.6 µM [inhibitor, partial curve]",
Cc1ccc(/C=N/N2CCN(Cc3ccc(Cl)cc3)CC2)o1,,inactive: 5.53%
O=c1n(S(=O)(=O)c2cccc3cccnc23)c2ccccc2n1S(=O)(=O)c1cccc2cccnc12,,inactive: 0.324%
COc1ccc(C(=O)C[n+]2cc(-c3ccc(OC)cc3)n3c2CCCC3)cc1,inactive,
O=C(N/N=C/c1ccc(N2CCOCC2)cc1)C1CC1,"inconclusive: 31.6 µM [inhibitor, partial curve]",
CCc1ccc(CN2CCN(S(=O)(=O)Cc3ccccc3)CC2)cc1,"inconclusive: 39.8 µM [inhibitor, single point]",
Cc1cccc(Cl)c1NNC(=O)Nc1c([N+](=O)[O-])c(C)nn1C,,inactive: -11.9%
CC(=O)Nc1cccc(-c2csc(NCc3ccccc3)n2)c1,"inconclusive: 25.1 µM [inhibitor, single point]",
Cc1cc(S(=O)(=O)N2CCOCC2)ccc1F,,inactive: -2.22%
CCOC(=O)C1=C(C)NC(C)=C(C(=O)OCC)C1c1ccc(Br)o1,"inconclusive: 39.8 µM [inhibitor, single point]",
C=CCn1c(COC)nnc1SCC(=O)c1ccc(F)cc1,"inconclusive: 39.8 µM [inhibitor, single point]",
CCOC(=O)c1[nH]c2ccc(F)cc2c1NC(=O)CCN1CCOCC1,"inconclusive: 25.1 µM [inhibitor, partial curve]",
Cc1oc(-c2ccccc2F)nc1CS(=O)CC(=O)NCc1ccc2c(c1)OCO2 (centres undefined),,inactive: -12.9%

SMILES,Potency,"activity change, negative = inhibition"
CC1(C)c2ccccc2N2CCC(=O)NC21/C=C/c1ccco1 (centres undefined),"inconclusive: 35.5 µM [inhibitor, single point]",
CC1CCN(C(=O)CCCOc2cc(=O)n(C)c3ccccc23)CC1,,inactive: 1.01%
CCN1CCN(c2nc3c(c(=O)n(C)c(=O)n3C)n2Cc2cccc3ccccc23)CC1,,inactive: -1.1%
O=C(NCCO)Nc1ccc2nsnc2c1,"inconclusive: 31.6 µM [inhibitor, partial curve]",
COC(=O)c1ccc(Sc2ccc(F)cc2)c(N)c1,"inconclusive: 28.2 µM [inhibitor, partial curve]",
CCCCOc1cccc(C(=O)NC(=S)Nc2ccc(Cl)c(C(=O)O)c2)c1,,inactive: -13.8%
Cc1ccc(NC(=O)CSc2nnc(-c3ccncc3)n2N)cc1C,,inactive: -1.65%
CN(CCC#N)C(=O)COC(=O)c1ccc2c(=O)n3c(nc2c1)CCC3,"inconclusive: 28.2 µM [inhibitor, partial curve]",
c1ccc(-c2cc3c(N4CCCCC4)ncnc3s2)cc1,"inconclusive: 31.6 µM [inhibitor, single point]",
Cc1ccc(OCc2nc(-c3ccccn3)n[nH]2)cc1,"inconclusive: 22.4 µM [inhibitor, single point]",
CN(C)c1cccc(C(=O)OCCNC(=O)c2cccc(S(=O)(=O)N3CCOCC3)c2)c1,"inconclusive: 39.8 µM [inhibitor, single point]",
Cc1ccc(NC(=S)N(CCN(C)C)Cc2cc3cc(C)cc(C)c3[nH]c2=O)cc1,,inactive: 10.7%
CC(=O)c1cccc(NC(=O)Nc2cc3sccc3n2C)c1,"inconclusive: 39.8 µM [inhibitor, single point]",
CCC(=O)Nc1ccc(C(=O)NNC(=O)COc2cc(C)ccc2C)cc1,"inconclusive: 39.8 µM [inhibitor, single point]",
COc1ccc(C(=O)N2CCN(C(=O)c3cc(OC)c(OC)c(OC)c3)CC2)cc1,,inactive: 0.456%
Nc1nc2ncc(CNc3ccc(C(=O)N[C@@H](CCC(=O)O)C(=O)O)cc3)nc2c(=O)[nH]1,"inconclusive: 10 µM [inhibitor, single point] and inconclusive: 25.1 µM [inhibitor, partial curve]",
COc1ccc(C(=O)c2ccccc2)c(O)c1O,active: 22.4 µM,
O=c1[nH]c2cc3c(cc2cc1C(c1nnnn1CC1CCCO1)N1CCCC1)OCO3 (centres undefined),"inconclusive: 28.2 µM [inhibitor, partial curve]",
Cc1cc([N+](=O)[O-])ccc1NC(=O)/C=C/c1cccs1,"inconclusive: 28.2 µM [inhibitor, partial curve]",
CC(C)[C@H](CO)Nc1nc(Nc2ccc(C(=O)O)c(Cl)c2)c2ncn(C(C)C)c2n1,"inconclusive: 22.4 µM [inhibitor, partial curve]",
Cc1ccc(-c2cc(C(F)F)nc(NCc3cccnc3)n2)cc1,"inconclusive: 35.5 µM [inhibitor, partial curve]",
CCOC(=O)N1CCC(NC(=O)CS(=O)Cc2nc(-c3ccc(OC)c(OC)c3)oc2C)CC1 (centres undefined),"inconclusive: 35.5 µM [inhibitor, single point]",
CCOC(=O)c1cc(C(=O)c2ccccc2O)cn2c(=O)c3c(C)c(C)sc3nc12,,inactive: -6.09%
CCC(=O)Nc1c(C)nn(-c2ccc(C)c(C)c2)c1C,,inactive: 6.5%
CCn1c2ccccc2c2cc(NC(=O)c3cccc(OC)c3)ccc21,"inconclusive: 39.8 µM [inhibitor, single point]",

SMILES,Potency,"activity change, negative = inhibition"
O=[N+]([O-])c1cccc(C2=NCCC(c3ccccc3)O2)c1 (centres undefined),,inactive: -19.9%
O=C(CCc1ccc(S(=O)(=O)N2CCOCC2)cc1)N/N=C/c1ccc(O)c(O)c1O,active: 10 µM,
Cc1ccsc1/C=N/NC(=O)Cn1cnc2ccccc21,,inactive: 3.15%
COc1cc(-c2nnc(SCC(=O)c3ccc(C)cc3)o2)cc(OC)c1OC,,inactive: 2.36%
O=C(CCl)NCCCCCCCCCNC(=O)CCl,,inactive: 6.26%
COC(/C=C/Nc1ccc(OC)cc1)=C(C#N)C#N,"inconclusive: 39.8 µM [inhibitor, single point]",
O=C(Nc1cccnc1)Nc1ccc(Br)cc1Cl,"inconclusive: 39.8 µM [inhibitor, single point]",
CC1(C)O[C@@H]2[C@@H](O1)C(c1ccccc1)(c1ccccc1)OP(=O)(O)OC2(c1ccccc1)c1ccccc1,,inactive: -14.6%
COc1ccc(C(=O)/C=C/Nc2ccc([N+](=O)[O-])cc2)cc1,,inactive: 5.66%
COc1cc2c(cc1NS(=O)(=O)N1CCCC1)oc1ccccc12,"inconclusive: 39.8 µM [inhibitor, single point]",
O=C(NCCN1CCOCC1)c1cc2cc([N+](=O)[O-])ccc2s1,,inactive: 1.99%
COc1ccc(/C=N/n2c(N)c(S(=O)(=O)c3cccs3)c3nc4ccccc4nc32)cc1OC,"inconclusive: 3.55 µM [inhibitor, full curve]",
Cc1nc(NCCO)c2nc(-c3ccccc3)n(CCCN(C)C)c2n1,"inconclusive: 25.1 µM [inhibitor, partial curve]",
Cc1nn(C)cc1CNC(=O)c1cnn2c(C(F)F)cc(C3CC3)nc12,"inconclusive: 28.2 µM [inhibitor, single point]",
C=CCn1c(-c2ccoc2)n[nH]c1=S,"inconclusive: 31.6 µM [inhibitor, single point]",
CC1CCCN(c2ncnc3c2cnn3-c2ccc(Cl)cc2)C1 (centres undefined),"inconclusive: 14.1 µM [inhibitor, partial curve]",
COc1cccc(C2CCCN2Cc2nc(CCC(C)C)no2)c1 (centres undefined),"inconclusive: 39.8 µM [inhibitor, partial curve, poor fit]",
O=C(Cc1ccc(F)cc1)Nc1c2c(nn1-c1cccc(Cl)c1)CS(=O)C2 (centres undefined),,inactive: 9.04%
COC(=O)c1ccccc1NCCO,"inconclusive: 28.2 µM [inhibitor, partial curve]",
CC(N)C(O)c1cccc(O)c1 (centres undefined),"inconclusive: 31.6 µM [inhibitor, single point]",
CC1CCN(C2CC(=O)N(c3ccccc3)C2=O)CC1 (centres undefined),,inactive: 3.2%
CCCN(CCC)c1ccc(CC(=O)NC(C)Cc2ccccc2)cc1 (centres undefined),,inactive: 2.15%
c1cncc(-c2nc(NCCCN3CCOCC3)c3c4c(sc3n2)CCC4)c1,"inconclusive: 28.2 µM [inhibitor, partial curve]",
CCCCNS(=O)(=O)c1ccc2nc(SCC(N)=O)[nH]c2c1,,inactive: 7.31%
